PubChem BioAssay AID1745853 (National Center for Advancing Translational Sciences (NCATS), 2022)
Where “and” joins values, the source holds several entries; their conditions need not be identical. Equal entries are not always repeated. The list shows a part of the results. Further columns of the screen follow, without active or inactive calls.

Columns and labels:
Assay in all cases: Primary Screen for Target Class Profiling of Small Molecule Inhibitors of Methyltransferases
[1] = target: Glycine N-methyltransferase (Homo sapiens) (UniProt Q14749); settings: purified enzyme, MTase-Glo SAH luminescence; measured here: GNMT inhibition; at 40 µM; stronger effect = lower value
Summary of the method: (§1)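 Each enzyme was reacted with SAM and its substrate, with compounds tested once at 40 uM; SAH formed was read by MTase-Glo luminescence.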

[2] = target: Guanidinoacetate N-methyltransferase (Homo sapiens) (UniProt Q14353); settings: purified enzyme, MTase-Glo SAH luminescence; measured here: GAMT inhibition; at 40 µM; stronger effect = lower value
Summary of the method: as §1

[3] = target: Histamine N-methyltransferase (Homo sapiens) (UniProt P50135); settings: purified enzyme, MTase-Glo SAH luminescence; measured here: HNMT inhibition; at 40 µM; stronger effect = lower value
Summary of the method: as §1

[4] = target: Nicotinamide N-methyltransferase (Homo sapiens) (UniProt P40261); settings: purified enzyme, MTase-Glo SAH luminescence; measured here: NNMT inhibition; at 40 µM; stronger effect = lower value
Summary of the method: as §1

[5] = target: Phenylethanolamine N-methyltransferase (Homo sapiens) (UniProt P11086); settings: purified enzyme, MTase-Glo SAH luminescence; measured here: PNMT inhibition; at 40 µM; stronger effect = lower value
Summary of the method: as §1
% is set by controls: 0 for no effect and ±100 for the full control effect.

COc1ccc(CN2C(=O)c3cc4ccccc4n3CC2(C)C(=O)NCCCOC(C)C)cc1 (stereo not given)
activity change, negative = inhibition [1]: 4.44%
activity change, negative = inhibition [2]: 0%
activity change, negative = inhibition [3]: 4.63%
activity change, negative = inhibition [4]: 5.54%
activity change, negative = inhibition [5]: 1.55%

Cc1nn(Cc2ccccc2)c(C)c1[C@@H]1C=C[C@@H](NC(=O)c2cccs2)C1
activity change, negative = inhibition [1]: -2.96%
activity change, negative = inhibition [2]: -1.5%
activity change, negative = inhibition [3]: -20.5%
activity change, negative = inhibition [4]: -25.1%
activity change, negative = inhibition [5]: 8.38%

CCCn1c(=O)c2ccc(C(=O)NC(C)C)cc2n2c(SCC(=O)NC3CCCCC3)nnc12
activity change, negative = inhibition [1]: 0.125%
activity change, negative = inhibition [2]: 0.367%
activity change, negative = inhibition [3]: -0.804%
activity change, negative = inhibition [4]: -1.2%
activity change, negative = inhibition [5]: -1.68%

Cn1c(CN2CCC(O)CC2)nnc1C1CCCN(Cc2ccccn2)C1 (stereo not given)
activity change, negative = inhibition [1]: -7.38%
activity change, negative = inhibition [2]: -7.33%
activity change, negative = inhibition [3]: -4.45%
activity change, negative = inhibition [4]: -3.42%
activity change, negative = inhibition [5]: -8.53%

COC(=O)c1ncn2c1C(=O)N(c1cccc(C)c1C)C(C)(C(=O)NCCCOC(C)C)C2 (stereo not given)
activity change, negative = inhibition [1]: 5.82%
activity change, negative = inhibition [2]: 1.18%
activity change, negative = inhibition [3]: 14.7%
activity change, negative = inhibition [4]: 4.01%
activity change, negative = inhibition [5]: 10.2%

CCCn1c(=O)c2ccc(Cl)cc2n2c(=O)n(CC(=O)c3ccc(C)cc3C)nc12
activity change, negative = inhibition [1]: 0.681%
activity change, negative = inhibition [2]: 0%
activity change, negative = inhibition [3]: 6.9%
activity change, negative = inhibition [4]: -2.37%
activity change, negative = inhibition [5]: 1.32%

O=C1CN(Cc2ccc(F)cc2Cl)S(=O)(=O)c2ccccc2N1Cc1ccccc1
activity change, negative = inhibition [1]: 15.4%
activity change, negative = inhibition [2]: 2.19%
activity change, negative = inhibition [3]: 13.8%
activity change, negative = inhibition [4]: 5.63%
activity change, negative = inhibition [5]: 10.6%

O=c1cc(-c2ccccc2F)[nH]c2cc3c(cc12)OCO3
activity change, negative = inhibition [1]: 2.27%
activity change, negative = inhibition [2]: 7.22%
activity change, negative = inhibition [3]: 5.54%
activity change, negative = inhibition [4]: -11%
activity change, negative = inhibition [5]: -1.33%

CC(=O)O[C@@H]1C[C@@H](C)[C@](O)(CCC2=CC(=O)OC2)[C@@]2(C)CCCC(C)(C)C12 (stereo not given in full)
activity change, negative = inhibition [1]: 1.82%
activity change, negative = inhibition [2]: 2.19%
activity change, negative = inhibition [3]: 3.11%
activity change, negative = inhibition [4]: -13.3%
activity change, negative = inhibition [5]: -0.392%

O=[N+]([O-])c1ccc(-c2nc(-c3ccc(F)cc3)c(-c3ccncc3)[nH]2)cc1
activity change, negative = inhibition [1]: -11.7% and -11.9%
activity change, negative = inhibition [2]: -7.13% and -6.92%
activity change, negative = inhibition [3]: -8.09% and -7.66%
activity change, negative = inhibition [4]: -38.2% and -22.6%
activity change, negative = inhibition [5]: -9.97% and -12.6%

CCCC1c2cccn2CCN1C(=O)Nc1ccccc1 (stereo not given)
activity change, negative = inhibition [1]: -7.25%
activity change, negative = inhibition [2]: 2.46%
activity change, negative = inhibition [3]: -24.6%
activity change, negative = inhibition [4]: -6.21%
activity change, negative = inhibition [5]: -4.04%

CC(=O)OC1C(CO)OC(O[C@H]2[C@H](OC(=O)[C@]34CCC(C)(C)C[C@H]3C3=CCC5[C@@]6(C)CC[C@H](O[C@@H]7O[C@H](C(=O)O)[C@@H](O)[C@H](O[C@@H]8OC[C@@H](O)[C@H](O)[C@H]8O)[C@H]7O[C@@H]7O[C@H](CO)[C@H](O)[C@H](O)[C@H]7O)[C@@](C)(C=O)C6CC[C@@]5(C)[C@]3(C)C[C@H]4O)O[C@H](C)[C@H](OC3OC(C)C(OC4OCC(O)C(O)C4O)C(O)C3O)[C@@H]2O)C(O)C1O (stereo not given in full)
activity change, negative = inhibition [1]: 2.55%
activity change, negative = inhibition [2]: 3.7%
activity change, negative = inhibition [3]: 6.46%
activity change, negative = inhibition [4]: -7.73%
activity change, negative = inhibition [5]: 2.35%

O=C(Cn1nc2n(Cc3ccccc3)c(=O)c3ccccc3n2c1=O)Nc1ccc(Cl)cc1
activity change, negative = inhibition [1]: 4.32%
activity change, negative = inhibition [2]: 0%
activity change, negative = inhibition [3]: 6.42%
activity change, negative = inhibition [4]: -2.4%
activity change, negative = inhibition [5]: 1.7%

Cc1ccc(CN2C(=O)c3cc4oc(C)cc4n3CC2(C)C(=O)NC2CCCCCCC2)cc1 (stereo not given)
activity change, negative = inhibition [1]: -7.62%
activity change, negative = inhibition [2]: -10.4%
activity change, negative = inhibition [3]: 0.353%
activity change, negative = inhibition [4]: -14.2%
activity change, negative = inhibition [5]: -10.2%

Cc1cc(-c2cc(OC(=O)c3ccccc3)ccc2Cl)cc2nnc(Nc3ccc(OCCN4CCCC4)cc3)nc12
activity change, negative = inhibition [1]: -2.48%
activity change, negative = inhibition [2]: -9.06%
activity change, negative = inhibition [3]: -6.41%
activity change, negative = inhibition [4]: -24%
activity change, negative = inhibition [5]: -8.11%

COCCCN1C(=O)c2ccc(-c3ccco3)n2CC1(C)C(=O)NC1CCCCCCC1 (stereo not given)
activity change, negative = inhibition [1]: -4.39%
activity change, negative = inhibition [2]: -2.41%
activity change, negative = inhibition [3]: 1.36%
activity change, negative = inhibition [4]: -8.48%
activity change, negative = inhibition [5]: -3.94%

COc1ccc(CN2CCc3oc(C)c(C(=O)NC(C)Cn4ccc(C)n4)c3C2)cc1 (stereo not given)
activity change, negative = inhibition [1]: -1.48%
activity change, negative = inhibition [2]: 3.57%
activity change, negative = inhibition [3]: -0.954%
activity change, negative = inhibition [4]: -1.46%
activity change, negative = inhibition [5]: -0.354%

CC1=C2C(=O)C=C(CO[C@@H]3O[C@H](CO)[C@@H](O)[C@H](O)[C@H]3O)[C@@H]2[C@H]2OC(=O)[C@H](C)[C@@H]2CC1
activity change, negative = inhibition [1]: 2.91%
activity change, negative = inhibition [2]: 5.19%
activity change, negative = inhibition [3]: 5.8%
activity change, negative = inhibition [4]: -6.72%
activity change, negative = inhibition [5]: -0.885%

Cc1ccccc1OC1(C(=O)O)CCN(c2ncccc2C(N)=O)CC1
activity change, negative = inhibition [1]: -2.28%
activity change, negative = inhibition [2]: -13.1%
activity change, negative = inhibition [3]: -2.16%
activity change, negative = inhibition [4]: -7.12%
activity change, negative = inhibition [5]: -5.25%

Cc1ccc(N2C(=O)c3nc4ccccc4n3CC2(C)C(=O)NC2CCCCCC2)cc1 (stereo not given)
activity change, negative = inhibition [1]: 6.4%
activity change, negative = inhibition [2]: 0%
activity change, negative = inhibition [3]: 10.6%
activity change, negative = inhibition [4]: 15.5%
activity change, negative = inhibition [5]: 4.44%

CC1CCN(S(=O)(=O)c2ccc3c(ccn3CC(=O)NCc3cccc(F)c3)c2)CC1
activity change, negative = inhibition [1]: 4.38%
activity change, negative = inhibition [2]: 0.586%
activity change, negative = inhibition [3]: 2.18%
activity change, negative = inhibition [4]: -2.07%
activity change, negative = inhibition [5]: 0.292%

Oc1ccccc1-c1cc(C2=CCOCC2)c2cncn2c1
activity change, negative = inhibition [1]: -30%
activity change, negative = inhibition [2]: -8.41%
activity change, negative = inhibition [3]: -11.8%
activity change, negative = inhibition [4]: -10.7%
activity change, negative = inhibition [5]: -6.02%

CCc1ccccc1NC(=O)Cn1nc2n(C)c(=O)c3ccc(C(=O)NC4CCCCC4)cc3n2c1=O
activity change, negative = inhibition [1]: 0.497%
activity change, negative = inhibition [2]: 3.98%
activity change, negative = inhibition [3]: 2.54%
activity change, negative = inhibition [4]: -0.177%
activity change, negative = inhibition [5]: 1.5%

CC(C)OCCCN1C(=O)c2ccc(-c3ccccc3)n2CC1(C)C(=O)NC1CCCCCCC1 (stereo not given)
activity change, negative = inhibition [1]: -4.24%
activity change, negative = inhibition [2]: -3.48%
activity change, negative = inhibition [3]: -3.07%
activity change, negative = inhibition [4]: -15.4%
activity change, negative = inhibition [5]: -2.95%

CC(C)CNC(=O)c1ccc2c(=O)n(C(C)C)c3nn(Cc4ccc(F)cc4Cl)c(=O)n3c2c1
activity change, negative = inhibition [1]: 0.491%
activity change, negative = inhibition [2]: 0%
activity change, negative = inhibition [3]: 6.32%
activity change, negative = inhibition [4]: 0.012%
activity change, negative = inhibition [5]: 3.2%

O=C(CNC(=O)c1ccccc1)NCc1nnc2ccc(-c3ccccc3)nn12
activity change, negative = inhibition [1]: -17.1%
activity change, negative = inhibition [2]: -5.84%
activity change, negative = inhibition [3]: -4.73%
activity change, negative = inhibition [4]: -15.4%
activity change, negative = inhibition [5]: -25.1%

Cc1cc2c(cc3n2CC(C)(C(=O)NC2CCCCCC2)N(c2cccc(Cl)c2)C3=O)o1 (stereo not given)
activity change, negative = inhibition [1]: -13%
activity change, negative = inhibition [2]: 0.346%
activity change, negative = inhibition [3]: -11%
activity change, negative = inhibition [4]: -9.38%
activity change, negative = inhibition [5]: -10.3%

COc1ccc2cc3n(c2c1)CC(C)(C(=O)NC1CCCC1)N(c1cccc(SC)c1)C3=O (stereo not given)
activity change, negative = inhibition [1]: -11.1%
activity change, negative = inhibition [2]: -3.06%
activity change, negative = inhibition [3]: -4.89%
activity change, negative = inhibition [4]: -11.5%
activity change, negative = inhibition [5]: -7.77%

CC1(C(=O)NC2CCCCCC2)Cn2c(cc3ccccc32)C(=O)N1Cc1cccs1 (stereo not given)
activity change, negative = inhibition [1]: 2.46%
activity change, negative = inhibition [2]: 0%
activity change, negative = inhibition [3]: 2.08%
activity change, negative = inhibition [4]: -5.07%
activity change, negative = inhibition [5]: -3.64%
